± gives the standard deviation of the averaged measurements. The list shows a part of the results.
The sequences below were run on PfAP2-I AP2 domain 3 (GST-tagged) (assay: gcPBM binding intensity (ln(normalized median fluorescence intensity)); higher = stronger DNA binding).
In short: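 Binding intensity is defined as the maximum Masliner-normalised natural-log median intensity across replicate spots for either probe orientation. It was measured on an Agilent 4 × 180k array of primer-extended double-stranded 36-bp intergenic genomic probes and negative controls, to which GST-tagged P. falciparum DNA-binding domains made in E. coli were applied for 1 h in 1× PBS with 1% milk, 0.2 mg/ml BSA, 0.5% salmon testes DNA and 0.03% Triton X-100. Detection was by Alexa488 anti-GST antibody and scanning at 488 nm.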

Sequence | gcPBM binding intensity (ln)
ACAATGAGGATATATACACACATACATTAAAAAAAT [CACACA_site6955] | 7.79 ± 0.6
TTTTTCTGTTCTTTTTGTACTTAAATATATTTATTT [XGTACX_site5658] | 7.91 ± 0.85
ATGTGTGTATTTTATAGTACAGTTACAAGCATTTTT [XGTACX_site6351] | 7.84 ± 0.49
AGAATATAATTTTTATGTACATATATTAAATATATT [XGTACX_site8521] | 7.6 ± 0.37
CACAAAAATAAACACACACACATATATATATATATA [CACACA_site4704] | 9.39 ± 0.42
TTCTTTTTGAAATATTAACACACATTTTGTTAATTA [CACACA_site9337] | 7.71 ± 0.56
CAAACATTTTAATGTACACACACCCACAGACAAACA [CACACA_site5522] | 8.44 ± 0.099
AGGAATTTATAAAATTGTACTTTTAATTACCTACAG [XGTACX_site3153] | 7.75 ± 0.29
ACCATGATAAATGTATTAAATGTATCATAACCTATG [CACACA_negctrl_site513] | 7.38 ± 0.56
AACGAAAGAAAAAAAGCACACACAGTTTTGAGCAAT [CACACA_site8658] | 7.98 ± 0.78
ATCCGTGTCTGAAATACACACATGATAATGTGAATG [CACACA_site8210] | 7.7 ± 0.58
ATGGAAACAAGCATCACACATATAAATATATATATA [CACACA_site4979] | 9.075 ± 0.035
TAAGATGATATAGACTGTACATATTGAACTTACAAG [XGTACX_site4290] | 7.47 ± 0.58
GTTTTTAAATATGCCATACACACTACTATATAATAA [CACACA_site1927] | 8.17 ± 0.45
TAATATATTAATTTTTGTACTTAATTATATGTTTTT [XGTACX_site5654] | 7.33 ± 0.4
GAAGAAAAAGAAAAAAGTACATATATTATATTATAA [XGTACX_site7870] | 7.73 ± 0.42
ATTCATATTAAATATATATATATATATATATATATA [CACACA_negctrl_site484] | 9.28 ± 0.64
ATATTTATATTTATGTGTACATATGAAATAATTATT [XGTACX_site7765] | 7.82 ± 0.41
TAATATATTATGAGGGGTACATAATATGGTTTATTG [XGTACX_site8301] | 7.84 ± 0.49
AATGTATTCTCTCATGCACACTTTCTTTAAGGGACC [CACACA_site5245] | 8.54 ± 0.52
ATATCTTATATCTTCACACATACACAATAAATACAT [CACACA_site5028] | 8.22 ± 0.59
CTAAGAAGTATTTACACACCAACAAGGCGAAAAAAA [CACACA_site2945] | 7.97 ± 0.69

Sequence | gcPBM binding intensity (ln)
ACTTTTATTATTTATATACACACTTGCTGAAATGTT [CACACA_site3637] | 8.29 ± 0.92
AGTTATAAAATATTTGCATGTAAATATATTATCTAT [TGCATGCA_site1015] | 7.67 ± 0.53
TTTTTTTTTTTTAGAGTACACACTTTTTTACATTTA [CACACA_site3836] | 8.24 ± 0.64
GTTGAAAATACAGAACGTACACGTTTGCCATATTGT [XGTACX_site2254] | 7.84 ± 0.54
TATGAAATGCTCCAATCACACATGAATGTAATATAT [CACACA_site5458] | 7.49 ± 0.48
ATATGATTTATAAAGTGTACCTTATTATAAGAAACA [XGTACX_site7914] | 7.86 ± 0.38
AAGATGAACCTTTACACATGCAACAAAAAATATACA [TGCATGCA_site166] | 7.83 ± 0.56
ATCAACATTATGTTTAGTACTTAGTGAATTGTTAAT [XGTACX_site4913] | 7.7 ± 0.5
ATATATATATATATATGTACATATTTACATTTTGTA [XGTACX_site3529] | 9.37 ± 0.28
TATACACATTCGCGTTGTACAAAAAAAAAAAAAAAG [XGTACX_site2880] | 7.99 ± 0.22
AATAAAGGAGCCTATGAACACACACCGGTACATATA [CACACA_site9352] | 7.56 ± 0.61
ATAAAAAAAAGAAAAACACACACATATATATATATA [CACACA_site8243] | 9.39 ± 0.31
ATAATAATAGTAATATGTACATATATATATATATAT [XGTACX_site7437] | 9.29 ± 0.3
ATTTTTATTTTATATACACACAATAATACTAGAATA [CACACA_site7810] | 7.82 ± 0.49
ATTTCATATGGTCAACGTACTCATGCATCCCTCCTT [XGTACX_site437] | 8.18 ± 0.98
AGATATATAAAATATACACACAGTAATATTTATATA [CACACA_site6767] | 7.3 ± 0.36
ATATATATCTACATATGTACATATATACATTACACA [XGTACX_site7210] | 7.9 ± 0.42
TCAAAAAAGACACACCGTACATACTATTTGGACAGG [XGTACX_site7699] | 7.8 ± 0.64
AATTATATTTGAAATACACACATAAAAACCATATAG [CACACA_site7598] | 7.92 ± 0.61
TTCTAAATTAATAATACACACTTGCTAAAATCATTA [CACACA_site5733] | 7.73 ± 0.38
TTTATTTTATCATTTGCACACGCACCCCCACATAAA [CACACA_site8007] | 10.4 ± 0.26
ATTCTCCATGTTTGATGTACTCATATGACGACGGAG [XGTACX_site4923] | 8.08 ± 0.23

— the supplement of paper PMC11417369
